Test results taken from the supplement of paper PMC12217912.
The other results are listed elsewhere or left out. The full chains were built here from the parent and the listed change. Inactive controls read about 0.05.

B1: TEV protease; numbered along this chain (parent)
chain: MGESLFKGPRDYNPISSSICHLTNESDGHTTSLYGIGFGPFIITNKHLFRRNNGTLVVQSLHGVFKVKDTTTLQQHLVDGRDMIIIRMPKDFPPFPQKLKFREPQREERICLVTTNFQTKSMSSMVSDTSCTFPSGDGIFWKHWIQTKDGQCGSPLVSTRDGFIVGIHSASNFTNTNNYFTSVPKNFMELLTNQEAQQWVSGWRLNADSVLWGGHKVFMVKPEEPFQPVKEATQL

Variants of: B1
Test: raw area under fraction-flipped curve 0-4 h after induction (AUC4h, not background-subtracted), DNA-recorder readout of cleavage of the substrate (dimensionless); higher = more cleavage of the substrate by the protease variant
Conditions: temperature: 34 °C; time window: 0-4 h after rhamnose induction
Method: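 In vivo DNA recorder in E. coli TOP10(DE3) ΔrhaA at 34 °C. Each TEVp single-site mutant (parent TEVp 0) is paired with a single-site variant of the 7-mer TEVs (canonical ENLYFQ|S). The substrate sits between flexible linkers in a Bxb1-sfGFP-TEVs-SsrA fusion, so cleavage stabilises Bxb1 and speeds flipping of a recombination array, read by NGS. The value is the raw area under the fraction-flipped curve over 0-4 h after rhamnose induction (AUC4h), with ≥20 reads per time point. It is not background-subtracted; inactive controls average about 0.047.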
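Note: Bxb1 expression induced with 0.2% (w/v) L-rhamnose at OD600 near 0.5, cultures sampled hourly, flipped fraction per protease–substrate barcode pair counted by paired-end Illumina sequencing.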

Row | Variant | area with substrate EALYFQS | area with substrate EDLYFQS | area with substrate EHLYFQS | area with substrate ELLYFQS | area with substrate EQLYFQS | area with substrate ESLYFQS | area with substrate EFLYFQS | area with substrate EILYFQS | area with substrate EKLYFQS | area with substrate ERLYFQS
1 | MGESLFKGPRDYNPISSSICHLTNESDGHTTSLYGIGFGPFIITNKHLFRRNNGTLVGQSLHGVFKVKDTTTLQQHLVDGRDMIIIRMPKDFPPFPQKLKFREPQREERICLVTTNFQTKSMSSMVSDTSCTFPSGDGIFWKHWIQTKDGQCGSPLVSTRDGFIVGIHSASNFTNTNNYFTSVPKNFMELLTNQEAQQWVSGWRLNADSVLWGGHKVFMVKPEEPFQPVKEATQL [V58G] | 0.0689 | 0.0718 | 0.0767 | 0.052 | 0.0841 | 0.0585 |  |  |  | 
2 | MGESLFKGPRDYNPISSSICHLTNESDGHTTSLYVIGFGPFIITNKHLFRRNNGTLVVQSLHGVFKVKDTTTLQQHLVDGRDMIIIRMPKDFPPFPQKLKFREPQREERICLVTTNFQTKSMSSMVSDTSCTFPSGDGIFWKHWIQTKDGQCGSPLVSTRDGFIVGIHSASNFTNTNNYFTSVPKNFMELLTNQEAQQWVSGWRLNADSVLWGGHKVFMVKPEEPFQPVKEATQL [G35V] | 0.0384 | 0.0361 | 0.0417 |  | 0.0232 |  | 0.0272 | 0.0484 | 0.0448 | 0.0619
3 | MGESLFKGPRDYNPISSSICHLTNESDGHTTSLYGIGFGPFIITNKHLFRRNNGTLVVQSLHGVFKVKDTTTLQQHLVDGRDMIIIRMPKDFPVFPQKLKFREPQREERICLVTTNFQTKSMSSMVSDTSCTFPSGDGIFWKHWIQTKDGQCGSPLVSTRDGFIVGIHSASNFTNTNNYFTSVPKNFMELLTNQEAQQWVSGWRLNADSVLWGGHKVFMVKPEEPFQPVKEATQL [P94V] | 0.12 | 0.153 |  | 0.119 |  | 0.0988 | 0.102 |  |  | 0.128
4 | MGESLFKGPRDYNPISSSICHLTNESDGHTTSLYGIGFGPFIITNKHLFRRNNGTLVVQSLHGVFKVKDTTTLQQHLVDGRDMIIIRMPKDFPPFPQKLKFREPQREERICLVTTNFQTKSMSSMVSDTSCTFPSGAGIFWKHWIQTKDGQCGSPLVSTRDGFIVGIHSASNFTNTNNYFTSVPKNFMELLTNQEAQQWVSGWRLNADSVLWGGHKVFMVKPEEPFQPVKEATQL [D137A] | 0.0958 | 0.119 |  |  |  |  |  |  | 0.088 | 
5 | MGESLFKGPRDYNPISSSICHLTNESDGHTTSLYGIGFGPFIITNKHLFRRNNGTLVVQSLHGVFKVKDTTTLQQHLVDGRDMIIIRMVKDFPPFPQKLKFREPQREERICLVTTNFQTKSMSSMVSDTSCTFPSGDGIFWKHWIQTKDGQCGSPLVSTRDGFIVGIHSASNFTNTNNYFTSVPKNFMELLTNQEAQQWVSGWRLNADSVLWGGHKVFMVKPEEPFQPVKEATQL [P89V] | 0.094 |  | 0.0908 | 0.0523 |  |  |  | 0.0755 |  | 

Same assay, conditions: temperature: 34 °C; time window: 0-4 h after rhamnose induction

Row | Variant | area with substrate EVLYFQS | area with substrate EWLYFQS | area with substrate EGLYFQS | area with substrate EMLYFQS | area with substrate EPLYFQS | area with substrate EYLYFQS
6 | MGESLFKGPRDYNPISSSICHLTNESDGHTTSLYVIGFGPFIITNKHLFRRNNGTLVVQSLHGVFKVKDTTTLQQHLVDGRDMIIIRMPKDFPPFPQKLKFREPQREERICLVTTNFQTKSMSSMVSDTSCTFPSGDGIFWKHWIQTKDGQCGSPLVSTRDGFIVGIHSASNFTNTNNYFTSVPKNFMELLTNQEAQQWVSGWRLNADSVLWGGHKVFMVKPEEPFQPVKEATQL [G35V] | 0.0572 | 0.0632 |  |  |  | 
7 | MGESLFKGPRDYNPISSSICHLTNESDGHTTSLYGIGFGPFIITNKHLFRRNNGTLVVQSLHGVFKVKDTTTLQQHLVDGRDMIIIRMPKDFPVFPQKLKFREPQREERICLVTTNFQTKSMSSMVSDTSCTFPSGDGIFWKHWIQTKDGQCGSPLVSTRDGFIVGIHSASNFTNTNNYFTSVPKNFMELLTNQEAQQWVSGWRLNADSVLWGGHKVFMVKPEEPFQPVKEATQL [P94V] | 0.099 | 0.118 | 0.0716 | 0.155 | 0.158 | 
8 | MGESLFKGPRDYNPISSSICHLTNESDGHTTSLYGIGFGPFIITNKHLFRRNNGTLVVQSLHGVFKVKDTTTLQQHLVDGRDMIIIRMPKDFPPFPQKLKFREPQREERICLVTTNFQTKSMSSMVSDTSCTFPSGAGIFWKHWIQTKDGQCGSPLVSTRDGFIVGIHSASNFTNTNNYFTSVPKNFMELLTNQEAQQWVSGWRLNADSVLWGGHKVFMVKPEEPFQPVKEATQL [D137A] |  |  | 0.081 | 0.0934 |  | 0.0995
9 | MGESLFKGPRDYNPISSSICHLTNESDGHTTSLYGIGFGPFIITNKHLFRRNNGTLVVQSLHGVFKVKDTTTLQQHLVDGRDMIIIRMVKDFPPFPQKLKFREPQREERICLVTTNFQTKSMSSMVSDTSCTFPSGDGIFWKHWIQTKDGQCGSPLVSTRDGFIVGIHSASNFTNTNNYFTSVPKNFMELLTNQEAQQWVSGWRLNADSVLWGGHKVFMVKPEEPFQPVKEATQL [P89V] | 0.0721 |  |  |  |  | 
